{
  "source": "paper PMC6919601",
  "about": "“Identification of Plasmodium dipeptidyl aminopeptidase allosteric inhibitors by high throughput screening” (PLoS ONE, 2019)",
  "note": "The whole screen tested about 110,000 compounds, of which about 230 (0.21%) showed an effect of 50% or more. Some of the results follow.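 Further: 30 min substrate incubation versus DMSO and 10 µM JCP410 controls.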",
  "data": [
    {"target": "DPAP1 (Plasmodium falciparum, UniProt Q8IIJ9)", "sequence (Q8IIJ9 whole entry, looked up)": "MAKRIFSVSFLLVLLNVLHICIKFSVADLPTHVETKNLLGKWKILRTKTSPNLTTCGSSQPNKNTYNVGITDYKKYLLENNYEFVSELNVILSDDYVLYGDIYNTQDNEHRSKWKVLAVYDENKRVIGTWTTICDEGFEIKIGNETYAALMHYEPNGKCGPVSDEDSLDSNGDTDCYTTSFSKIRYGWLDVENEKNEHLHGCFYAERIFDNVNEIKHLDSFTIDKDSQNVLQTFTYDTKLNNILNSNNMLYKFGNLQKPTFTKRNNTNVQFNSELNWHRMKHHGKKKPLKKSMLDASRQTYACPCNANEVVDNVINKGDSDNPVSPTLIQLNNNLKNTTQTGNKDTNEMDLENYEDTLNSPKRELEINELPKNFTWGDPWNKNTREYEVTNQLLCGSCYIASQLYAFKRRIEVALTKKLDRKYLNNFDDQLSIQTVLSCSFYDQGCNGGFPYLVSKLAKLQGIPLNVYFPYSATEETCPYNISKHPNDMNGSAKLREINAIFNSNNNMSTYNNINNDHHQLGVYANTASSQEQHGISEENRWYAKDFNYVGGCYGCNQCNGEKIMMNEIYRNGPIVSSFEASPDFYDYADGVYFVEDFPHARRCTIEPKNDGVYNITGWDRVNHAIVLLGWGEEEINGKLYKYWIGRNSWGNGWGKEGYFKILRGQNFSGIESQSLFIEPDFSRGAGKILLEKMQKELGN", "assay": "primary screen, percent inhibition; read by cleavage of a fluorogenic dipeptide substrate; higher = more effect of the substance", "design": "species or system P. falciparum D10 trophozoite lysates; single well", "units": {"% Inhibition @ 10 uM": "%"}, "values": [
      {"smiles": "CCOc1ccccc1NC(=O)c1ccc(OC(F)F)c(OC)c1", "% Inhibition @ 10 uM": 4.03},
      {"smiles": "NC(=O)C1CCN(C(=O)c2ccc(C#CC3(O)CCCCC3)cc2)CC1", "% Inhibition @ 10 uM": 2.05},
      {"smiles": "Cc1ccccc1Cn1c2ccccc2c2cnn(CC(=O)NCc3ccc(F)cc3)c(=O)c21", "% Inhibition @ 10 uM": 6.27},
      {"smiles": "CN(Cc1ccccc1)S(=O)(=O)c1ccc(NC(=O)c2ccc(Br)o2)cc1", "% Inhibition @ 10 uM": -1.37},
      {"smiles": "CCOC(=O)c1c(C)n(-c2ccccc2)c2ccc(O)c(CN(C)C)c12", "% Inhibition @ 10 uM": -1.85},
      {"smiles": "Cc1ccc2c(Cl)c(C(=O)N3CCCCCC3)sc2c1", "% Inhibition @ 10 uM": -3.35},
      {"smiles": "CCOCCCNC(=O)c1ccc(CSc2nc3ccncc3n2Cc2ccccc2C)cc1", "% Inhibition @ 10 uM": -5.49},
      {"smiles": "Cc1ccc(N(CC(=O)NCc2ccccc2Cl)S(C)(=O)=O)c(C)c1", "% Inhibition @ 10 uM": 3.1},
      {"smiles": "CC(C)Oc1ccc(C(=O)NC(CC(=O)O)c2ccccc2)cc1", "note": "(stereo not drawn)", "% Inhibition @ 10 uM": -1.52},
      {"smiles": "Oc1nc(NC2CCCCC2)nnc1Cc1ccccc1", "% Inhibition @ 10 uM": 0.457},
      {"smiles": "Cc1ccc(-c2cc(C(=O)NC(C)(C)CO)no2)cc1", "% Inhibition @ 10 uM": 3.54},
      {"smiles": "O=C(NCCc1ccccc1)c1ccc(NS(=O)(=O)c2cccc(Cl)c2)cc1", "% Inhibition @ 10 uM": -3.77},
      {"smiles": "Cc1ccc(-c2csc(Nc3ccccc3)n2)cc1", "% Inhibition @ 10 uM": -3.79},
      {"smiles": "CCOc1cc(CNc2ccccc2Cl)ccc1OC", "% Inhibition @ 10 uM": -2.74},
      {"smiles": "Cc1ccc(C(O)C#Cc2ccccc2)o1", "note": "(stereo not drawn)", "% Inhibition @ 10 uM": -0.13},
      {"smiles": "COc1ccc(C=C(C#N)C#N)cc1O", "% Inhibition @ 10 uM": 3.32},
      {"smiles": "Cc1ccc(C)c(S(=O)(=O)Nc2ccccc2Cl)c1", "% Inhibition @ 10 uM": 0.132},
      {"smiles": "Cc1ccc(C)c(N(CC(=O)Nc2ccc(S(=O)(=O)N3CCCCC3)cc2)S(C)(=O)=O)c1", "% Inhibition @ 10 uM": -4.05},
      {"smiles": "Cc1ccc(S(=O)(=O)c2nc(S(C)(=O)=O)sc2N(C)C2CCCCC2)cc1", "% Inhibition @ 10 uM": -0.522},
      {"smiles": "CC(C)N(CCC#N)S(=O)(=O)c1ccccc1[N+](=O)[O-]", "% Inhibition @ 10 uM": -6.99},
      {"smiles": "Cc1nn(-c2ccccc2)c2c1C1(C(=O)Nc3ccc(Cl)cc31)C(C#N)=C(N)O2", "note": "(stereo not drawn)", "% Inhibition @ 10 uM": -4.4},
      {"smiles": "CN(C(=O)c1ccccc1)C1(C(=O)NC2CCCC2)CCCCC1", "% Inhibition @ 10 uM": 3.9},
      {"smiles": "O=C(Cn1ncc2c3ccccc3n(Cc3ccccc3F)c2c1=O)NCCCN1CCCCC1", "% Inhibition @ 10 uM": -7.1},
      {"smiles": "CC1=C(C(=O)Nc2ccccc2C)C(c2cccs2)n2c(s/c(=C/c3cn(C)nc3C)c2=O)=N1", "note": "(stereo not drawn)", "% Inhibition @ 10 uM": 3.9},
      {"smiles": "COc1ccc(CN2CCN(c3cccc(C(F)(F)F)c3)CC2)cc1OC", "% Inhibition @ 10 uM": 3.1},
      {"smiles": "C1C2CC3CC1CC(C2)C3Nc1nc2nonc2nc1NC1C2CC3CC(C2)CC1C3", "note": "(stereo not drawn)", "% Inhibition @ 10 uM": 3.06},
      {"smiles": "Nc1cc(=O)nc(SCC(=O)Nc2ccccn2)n1CCc1ccccc1", "% Inhibition @ 10 uM": 3.47},
      {"smiles": "CCOc1cc(/C=C2\\SC(NC(C)=O)=NC2=O)ccc1OCc1ccccc1", "% Inhibition @ 10 uM": 2.84},
      {"smiles": "CC(C)(C)C(=O)Nc1ccc(NC(=O)C(C)(C)C)c(Cl)c1", "% Inhibition @ 10 uM": -14.2},
      {"smiles": "O=S(=O)(c1ccc(-n2cnnn2)cc1)N1CCN(c2cnccn2)CC1", "% Inhibition @ 10 uM": 5.43},
      {"smiles": "COc1ccc(CNC(=O)CSc2ncnc3[nH]cnc23)cc1", "% Inhibition @ 10 uM": 5.03},
      {"smiles": "CCn1c2ccccc2c2cc(CNc3ccccc3SC)ccc21", "% Inhibition @ 10 uM": 0.217},
      {"smiles": "Cc1ccc(C(=O)Nc2cccc(Cl)c2Cl)cc1", "% Inhibition @ 10 uM": 3},
      {"smiles": "COc1ccc(-c2csc3ncn(CC(=O)NCCc4ccccc4)c(=O)c23)cc1OC", "% Inhibition @ 10 uM": 0.161},
      {"smiles": "CCN(CC)CC(=O)N1CC(=O)Nc2ccccc21", "% Inhibition @ 10 uM": -6.49},
      {"smiles": "Clc1cccc(Cl)c1CN1CCN(C/C=C/c2ccccc2)CC1", "% Inhibition @ 10 uM": 1.38},
      {"smiles": "CCCO/C(O)=C1/C(C)=NC2=C(C(=O)CCC2)C1c1ccc(SC)cc1", "note": "(stereo not drawn)", "% Inhibition @ 10 uM": 2.05},
      {"smiles": "Cc1cc2nc(-c3cccc(N)c3C)oc2cc1C", "% Inhibition @ 10 uM": -8.36},
      {"smiles": "O=C1C(Cl)=C(Cl)C(=O)N1CCOCCN1C(=O)C(Cl)=C(Cl)C1=O", "% Inhibition @ 10 uM": 1.25},
      {"smiles": "O=C(Nc1ccccc1C(F)(F)F)c1ccccc1Br", "% Inhibition @ 10 uM": 3.85},
      {"smiles": "COc1ccc(-c2noc(CN(C(=O)c3ccc4c(c3)OCO4)C(C)C)n2)cc1", "% Inhibition @ 10 uM": 2.5},
      {"smiles": "Cc1cc(NC(=O)c2sc3nc4c(cc3c2N)N2CCC4CC2)on1", "% Inhibition @ 10 uM": 2.77},
      {"smiles": "O=C(NC1CCCCCC1)C1CCCN(c2nc3ccccc3n3cccc23)C1", "note": "(stereo not drawn)", "% Inhibition @ 10 uM": 5.56},
      {"smiles": "COc1ccc(/C=C2/SC(Nc3cccc(C)c3)=NC2=O)c(OC)c1", "% Inhibition @ 10 uM": 5.24},
      {"smiles": "Cc1ccc(C(=O)NCCc2nc(-c3ccccc3)cs2)cc1", "% Inhibition @ 10 uM": -5.27},
      {"smiles": "COCCNC(=O)C1CCCN(C2N=CNc3onc(C)c32)C1", "note": "(stereo not drawn)", "% Inhibition @ 10 uM": 1.91},
      {"smiles": "CS(=O)(=O)N1CCC(C(=O)NCCN2CCCCCC2)CC1", "% Inhibition @ 10 uM": -1.34},
      {"smiles": "CC(NC(=O)Cc1noc2ccccc12)c1ccc2c(c1)OCCO2", "note": "(stereo not drawn)", "% Inhibition @ 10 uM": -5.05},
      {"smiles": "CCOC(=O)C1CCCCN1CC1=CC[C@H]2C[C@@H]1C2(C)C", "note": "(stereo partly drawn)", "% Inhibition @ 10 uM": -1.78},
      {"smiles": "CC(C)C[C@@H](C(=O)NCC#N)N(C)C(=O)c1ccc(-c2csc(N(C)C)n2)cc1", "% Inhibition @ 10 uM": -3.97},
      {"smiles": "CCOC(=O)c1c(C)c(C(=O)NCc2ccc3c(c2)OCO3)c(C)n1CC", "% Inhibition @ 10 uM": 1.72}
    ]}
  ]
}
